# Test results as given in the supplement of paper PMC8728848.
# This is one part of the list.
# Tests used:
# Assay in all cases: glycan array binding signal (z-score within array); higher = stronger binding
# Details in all cases: glycan notation: IUPAC condensed, linker removed
# [1] = target: Gal(a1-3)Gal(b1-4)[Fuc(a1-3)]GlcNAc
# Method in brief: (§1)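 Negative Z-scores can be read as non-binding. The Z-score is calculated within each array and then averaged across arrays of one protein sequence at different concentrations or buffers and across linkers. Arrays, 3228 in all, were curated from the Consortium for Functional Glycomics database and kept only where the protein sequence was available.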
# [2] = target: Gal(a1-3)Gal(b1-4)[Fuc(a1-3)]GlcNAc(b1-2)Man(a1-3)[Gal(a1-3)Gal(b1-4)[Fuc(a1-3)]GlcNAc(b1-2)Man(a1-6)]Man(b1-4)GlcNAc(b1-4)GlcNAc
# Method in brief: as §1
# [3] = target: Gal(a1-3)GalNAc
# Method in brief: as §1
# [4] = target: Gal(a1-3)[Gal(a1-4)]Gal(b1-4)GlcNAc
# Method in brief: as §1
# [5] = target: Gal(a1-4)Gal(b1-3)GlcNAc(b1-2)Man(a1-3)[Gal(a1-4)Gal(b1-3)GlcNAc(b1-2)Man(a1-6)]Man(b1-4)GlcNAc(b1-4)GlcNAc
# Method in brief: as §1
# [6] = target: Gal(a1-4)Gal(b1-4)Glc
# Method in brief: as §1
# [7] = target: Gal(a1-4)Gal(b1-4)GlcNAc
# Method in brief: as §1
# [8] = target: Gal(a1-4)Gal(b1-4)GlcNAc(b1-2)Man(a1-3)[Gal(a1-4)Gal(b1-4)GlcNAc(b1-2)Man(a1-6)]Man(b1-4)GlcNAc(b1-4)GlcNAc
# Method in brief: as §1
# [9] = target: Gal(a1-4)Gal(b1-4)GlcNAc(b1-3)Gal(b1-4)Glc
# Method in brief: as §1
# [10] = target: Gal(a1-4)GlcNAc
# Method in brief: as §1
# [11] = target: Gal(a1-6)Glc
# Method in brief: as §1
# [12] = target: Gal(b1-2)Gal
# Method in brief: as §1
# [13] = target: Gal(b1-3)Gal
# Method in brief: as §1
# [14] = target: Gal(b1-3)Gal(b1-4)GlcNAc
# Method in brief: as §1
# [15] = target: Gal(b1-3)Gal(b1-4)GlcNAc(b1-2)Man(a1-3)[Gal(b1-3)Gal(b1-4)GlcNAc(b1-2)Man(a1-6)]Man(b1-4)GlcNAc(b1-4)GlcNAc
# Method in brief: as §1
# [16] = target: Gal(b1-3)GalNAc
# Method in brief: as §1
# [17] = target: Gal(b1-3)GalNAc(a1-3)[Fuc(a1-2)]Gal(b1-4)Glc
# Method in brief: as §1
# [18] = target: Gal(b1-3)GalNAc(a1-3)[Fuc(a1-2)]Gal(b1-4)GlcNAc
# Method in brief: as §1
# [19] = target: Gal(b1-3)GalNAc(b1-3)Gal(a1-4)Gal(b1-4)Glc
# Method in brief: as §1
# [20] = target: Gal(b1-3)GalNAc(b1-4)Gal(b1-4)Glc
# Method in brief: as §1
# [21] = target: Gal(b1-3)GalNAc(b1-4)[Neu5Ac(a2-3)]Gal(b1-4)Glc
# Method in brief: as §1
# [22] = target: Gal(b1-3)GlcNAc
# Method in brief: as §1
# [23] = target: Gal(b1-3)GlcNAc(a1-6)Gal(b1-4)GlcNAc
# Method in brief: as §1
# [24] = target: Gal(b1-3)GlcNAc(b1-2)Man(a1-3)[Gal(b1-3)GlcNAc(b1-2)Man(a1-6)]Man(b1-4)GlcNAc(b1-4)GlcNAc
# Method in brief: as §1
# [25] = target: Gal(b1-3)GlcNAc(b1-2)Man(a1-3)[Gal(b1-3)GlcNAc(b1-2)Man(a1-6)]Man(b1-4)GlcNAc(b1-4)[Fuc(a1-6)]GlcNAc
# Method in brief: as §1
# [26] = target: Gal(b1-3)GlcNAc(b1-2)[Gal(b1-3)GlcNAc(b1-6)]Man(a1-6)[Gal(b1-3)GlcNAc(b1-2)Man(a1-3)]Man(b1-4)GlcNAc(b1-4)GlcNAc
# Method in brief: as §1
# [27] = target: Gal(b1-3)GlcNAc(b1-3)Gal(b1-3)GlcNAc
# Method in brief: as §1
# [28] = target: Gal(b1-3)GlcNAc(b1-3)Gal(b1-4)Glc
# Method in brief: as §1
# [29] = target: Gal(b1-3)GlcNAc(b1-3)Gal(b1-4)GlcNAc
# Method in brief: as §1
# [30] = target: Gal(b1-3)GlcNAc(b1-3)Gal(b1-4)GlcNAc(b1-6)[Gal(b1-3)GlcNAc(b1-3)]Gal(b1-4)Glc
# Method in brief: as §1
# [31] = target: Gal(b1-3)GlcNAc(b1-3)Gal(b1-4)[Fuc(a1-3)]GlcNAc(b1-6)[Gal(b1-3)GlcNAc(b1-3)]Gal(b1-4)Glc
# Method in brief: as §1
# [32] = target: Gal(b1-3)GlcNAc(b1-3)GalNAc
# Method in brief: as §1
# [33] = target: Gal(b1-3)GlcNAc(b1-6)Gal(b1-4)GlcNAc
# Method in brief: as §1
# [34] = target: Gal(b1-3)[Fuc(a1-4)]GlcNAc
# Method in brief: as §1
# [35] = target: Gal(b1-3)[Fuc(a1-4)]GlcNAc(b1-2)Man(a1-3)[Gal(b1-3)[Fuc(a1-4)]GlcNAc(b1-2)Man(a1-6)]Man(b1-4)GlcNAc(b1-4)GlcNAc
# Method in brief: as §1
# [36] = target: Gal(b1-3)[Fuc(a1-4)]GlcNAc(b1-2)Man(a1-3)[Gal(b1-3)[Fuc(a1-4)]GlcNAc(b1-2)Man(a1-6)]Man(b1-4)GlcNAc(b1-4)[Fuc(a1-6)]GlcNAc
# Method in brief: as §1
# [37] = target: Gal(b1-3)[Fuc(a1-4)]GlcNAc(b1-3)Gal(b1-3)[Fuc(a1-4)]GlcNAc
# Method in brief: as §1
binder,measurement,setting,value
Gal 4 (Canis lupus) (protein) MAYVPAPGYQPTYNPTLPYNKPIPGGLSVGMSVYIQGITSEHMRRFCVNFVAGAHPGSDIAFHFNPRFDGWDKVVFNSHLGGKWGSEEKKRSMPFRKGTHFELVFMVLAEHYKVVVNGNPFYEFGHRLPLQLVTHLQVEGDVELQSINFIGGTQPLGQGPGHTQQQPSSLPTMEGPPVFNPPVPFRKRLQGGLTVRRTVIIKGFVPFTSKSFVINFMVESSGDLALHINPRLTEGLVVRNSCLNGSWGSEDRKLSYNPFIPGQFFDLSIRCGMDRFKVYANGQHLFDFSHRLLALQNVDMLEINGDVTLSYIQV,glycan array binding signal (z-score),[1],-0.153
same,glycan array binding signal (z-score),[2],-0.134
same,glycan array binding signal (z-score),[3],-0.152
same,glycan array binding signal (z-score),[4],-0.135
same,glycan array binding signal (z-score),[5],-0.114
same,glycan array binding signal (z-score),[6],-0.149
same,glycan array binding signal (z-score),[7],-0.147
same,glycan array binding signal (z-score),[8],-0.064
same,glycan array binding signal (z-score),[9],-0.143
same,glycan array binding signal (z-score),[10],-0.136
same,glycan array binding signal (z-score),[11],-0.154
same,glycan array binding signal (z-score),[12],-0.149
same,glycan array binding signal (z-score),[13],-0.143
same,glycan array binding signal (z-score),[14],-0.154
same,glycan array binding signal (z-score),[15],-0.123
same,glycan array binding signal (z-score),[16],-0.15
same,glycan array binding signal (z-score),[17],11.1
same,glycan array binding signal (z-score),[18],2.63
same,glycan array binding signal (z-score),[19],-0.148
same,glycan array binding signal (z-score),[20],-0.134
same,glycan array binding signal (z-score),[21],-0.139
same,glycan array binding signal (z-score),[22],-0.138
same,glycan array binding signal (z-score),[23],-0.137
same,glycan array binding signal (z-score),[24],-0.112
same,glycan array binding signal (z-score),[25],-0.104
same,glycan array binding signal (z-score),[26],-0.106
same,glycan array binding signal (z-score),[27],-0.143
same,glycan array binding signal (z-score),[28],-0.127
same,glycan array binding signal (z-score),[29],-0.154
same,glycan array binding signal (z-score),[30],-0.146
same,glycan array binding signal (z-score),[31],-0.122
same,glycan array binding signal (z-score),[32],-0.146
same,glycan array binding signal (z-score),[33],-0.141
same,glycan array binding signal (z-score),[34],-0.152
same,glycan array binding signal (z-score),[35],-0.075
same,glycan array binding signal (z-score),[36],-0.122
same,glycan array binding signal (z-score),[37],-0.132
